In the supplement of paper PMC8728848:
Some of the results follow.

Key:
Assay in all cases: glycan array binding signal (z-score within array); higher = stronger binding
Details in all cases: glycan notation: IUPAC condensed, linker removed
[1] = molecular target: Gal(a1-3)Gal(b1-4)GlcNAc(b1-2)Man
Outline: (§1)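 Negative Z-scores can be read as non-binding. The Z-score is calculated within each array and then averaged across arrays of one protein sequence at different concentrations or buffers and across linkers. Arrays, 3228 in all, were curated from the Consortium for Functional Glycomics database and kept only where the protein sequence was available.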

[2] = molecular target: Gal(a1-3)Gal(b1-4)GlcNAc(b1-2)Man(a1-3)[Gal(a1-3)Gal(b1-4)GlcNAc(b1-2)Man(a1-6)]Man(b1-4)GlcNAc(b1-4)GlcNAc
Outline: as §1

[3] = molecular target: Gal(a1-3)Gal(b1-4)GlcNAc(b1-3)GalNAc
Outline: as §1

[4] = molecular target: Gal(a1-3)Gal(b1-4)GlcNAc(b1-6)GalNAc
Outline: as §1

[5] = molecular target: Gal(a1-3)Gal(b1-4)[Fuc(a1-3)]GlcNAc
Outline: as §1

[6] = molecular target: Gal(a1-3)Gal(b1-4)[Fuc(a1-3)]GlcNAc(b1-2)Man(a1-3)[Gal(a1-3)Gal(b1-4)[Fuc(a1-3)]GlcNAc(b1-2)Man(a1-6)]Man(b1-4)GlcNAc(b1-4)GlcNAc
Outline: as §1

Gal(a1-3)GalNAc = molecular target: Gal(a1-3)GalNAc
Outline: as §1

[7] = molecular target: Gal(a1-3)[Gal(a1-4)]Gal(b1-4)GlcNAc
Outline: as §1

[8] = molecular target: Gal(a1-4)Gal(b1-3)GlcNAc(b1-2)Man(a1-3)[Gal(a1-4)Gal(b1-3)GlcNAc(b1-2)Man(a1-6)]Man(b1-4)GlcNAc(b1-4)GlcNAc
Outline: as §1

Gal(a1-4)Gal(b1-4)Glc = molecular target: Gal(a1-4)Gal(b1-4)Glc
Outline: as §1

Gal(a1-4)Gal(b1-4)GlcNAc = molecular target: Gal(a1-4)Gal(b1-4)GlcNAc
Outline: as §1

[9] = molecular target: Gal(a1-4)Gal(b1-4)GlcNAc(b1-2)Man(a1-3)[Gal(a1-4)Gal(b1-4)GlcNAc(b1-2)Man(a1-6)]Man(b1-4)GlcNAc(b1-4)GlcNAc
Outline: as §1

[10] = molecular target: Gal(a1-4)Gal(b1-4)GlcNAc(b1-3)Gal(b1-4)Glc
Outline: as §1

Gal(a1-4)GlcNAc = molecular target: Gal(a1-4)GlcNAc
Outline: as §1

Gal(a1-6)Glc = molecular target: Gal(a1-6)Glc
Outline: as §1

Gal(b1-2)Gal = molecular target: Gal(b1-2)Gal
Outline: as §1

Gal(b1-3)Gal = molecular target: Gal(b1-3)Gal
Outline: as §1

Gal(b1-3)Gal(b1-4)GlcNAc = molecular target: Gal(b1-3)Gal(b1-4)GlcNAc
Outline: as §1

Gal(b1-3)GalNAc = molecular target: Gal(b1-3)GalNAc
Outline: as §1

[11] = molecular target: Gal(b1-3)GalNAc(a1-3)[Fuc(a1-2)]Gal(b1-4)Glc
Outline: as §1

[12] = molecular target: Gal(b1-3)GalNAc(a1-3)[Fuc(a1-2)]Gal(b1-4)GlcNAc
Outline: as §1

Gal(b1-3)GalNAc(b1-3)Gal = molecular target: Gal(b1-3)GalNAc(b1-3)Gal
Outline: as §1

[13] = molecular target: Gal(b1-3)GalNAc(b1-3)Gal(a1-4)Gal(b1-4)Glc
Outline: as §1

[14] = molecular target: Gal(b1-3)GalNAc(b1-4)Gal(b1-4)Glc
Outline: as §1

[15] = molecular target: Gal(b1-3)GalNAc(b1-4)[Neu5Ac(a2-3)]Gal(b1-4)Glc
Outline: as §1

Gal(b1-3)GlcNAc = molecular target: Gal(b1-3)GlcNAc
Outline: as §1

[16] = molecular target: Gal(b1-3)GlcNAc(a1-3)Gal(b1-4)GlcNAc
Outline: as §1

[17] = molecular target: Gal(b1-3)GlcNAc(a1-6)Gal(b1-4)GlcNAc
Outline: as §1

Gal(b1-3)GlcNAc(b1-2)Man = molecular target: Gal(b1-3)GlcNAc(b1-2)Man
Outline: as §1

[18] = molecular target: Gal(b1-3)GlcNAc(b1-2)Man(a1-3)[Gal(b1-3)GlcNAc(b1-2)Man(a1-6)]Man(b1-4)GlcNAc(b1-4)GlcNAc
Outline: as §1

[19] = molecular target: Gal(b1-3)GlcNAc(b1-2)Man(a1-3)[Gal(b1-3)GlcNAc(b1-2)Man(a1-6)]Man(b1-4)GlcNAc(b1-4)[Fuc(a1-6)]GlcNAc
Outline: as §1

[20] = molecular target: Gal(b1-3)GlcNAc(b1-2)Man(a1-3)[GlcNAc(b1-4)][Gal(b1-3)GlcNAc(b1-2)Man(a1-6)]Man(b1-4)GlcNAc(b1-4)GlcNAc
Outline: as §1

[21] = molecular target: Gal(b1-3)GlcNAc(b1-2)[Gal(b1-3)GlcNAc(b1-6)]Man(a1-6)[Gal(b1-3)GlcNAc(b1-2)Man(a1-3)]Man(b1-4)GlcNAc(b1-4)GlcNAc
Outline: as §1

[22] = molecular target: Gal(b1-3)GlcNAc(b1-3)Gal(b1-3)GlcNAc
Outline: as §1

[23] = molecular target: Gal(b1-3)GlcNAc(b1-3)Gal(b1-4)Glc
Outline: as §1

[24] = molecular target: Gal(b1-3)GlcNAc(b1-3)Gal(b1-4)GlcNAc
Outline: as §1

[25] = molecular target: Gal(b1-3)GlcNAc(b1-3)Gal(b1-4)GlcNAc(b1-2)Man(a1-3)[Gal(b1-3)GlcNAc(b1-3)Gal(b1-4)GlcNAc(b1-2)Man(a1-6)]Man(b1-4)GlcNAc(b1-4)GlcNAc
Outline: as §1

[26] = molecular target: Gal(b1-3)GlcNAc(b1-3)Gal(b1-4)GlcNAc(b1-2)[Gal(b1-3)GlcNAc(b1-3)Gal(b1-4)GlcNAc(b1-6)]Man(a1-6)[Gal(b1-3)GlcNAc(b1-3)Gal(b1-4)GlcNAc(b1-2)Man(a1-3)]Man(b1-4)GlcNAc(b1-4)[Fuc(a1-6)]GlcNAc
Outline: as §1

[27] = molecular target: Gal(b1-3)GlcNAc(b1-3)Gal(b1-4)GlcNAc(b1-3)Gal(b1-4)GlcNAc(b1-2)[Gal(b1-3)GlcNAc(b1-3)Gal(b1-4)GlcNAc(b1-3)Gal(b1-4)GlcNAc(b1-6)]Man(a1-6)[Gal(b1-3)GlcNAc(b1-3)Gal(b1-4)GlcNAc(b1-3)Gal(b1-4)GlcNAc(b1-2)Man(a1-3)]Man(b1-4)GlcNAc(b1-4)[Fuc(a1-6)]GlcNAc
Outline: as §1

[28] = molecular target: Gal(b1-3)GlcNAc(b1-3)Gal(b1-4)GlcNAc(b1-6)[Gal(b1-3)GlcNAc(b1-3)]Gal(b1-4)Glc
Outline: as §1

[29] = molecular target: Gal(b1-3)GlcNAc(b1-3)Gal(b1-4)[Fuc(a1-3)]GlcNAc
Outline: as §1

[30] = molecular target: Gal(b1-3)GlcNAc(b1-3)Gal(b1-4)[Fuc(a1-3)]GlcNAc(b1-6)[Gal(b1-3)GlcNAc(b1-3)]Gal(b1-4)Glc
Outline: as §1

[31] = molecular target: Gal(b1-3)GlcNAc(b1-3)GalNAc
Outline: as §1

[32] = molecular target: Gal(b1-3)GlcNAc(b1-6)Gal(b1-4)GlcNAc
Outline: as §1

[33] = molecular target: Gal(b1-3)GlcNAc(b1-6)GalNAc
Outline: as §1

B1: PX9961X-pdi-531-24-531 (Parabacteroides distasonis) (protein)
chain: DLTEEIHSSVIAENYYNNAGEVMAAMMRPWGHFCGTMQVAQSPWSCNELSSDCAAWPQKGRHGYDNGDWIRLHRHQWIPTDGQVVDAWKKLFEGIGYANNFLTDTENIDFEALQVPMSKAQAQAEMRVYRAYCYWYVMDMFGTAPICEKIGEINPSSKSRAELFAWIEKELNESIPSLSESKTETYGRVSKWGAYALLARLYLNAEIYTGQARWDDCIAACDELAKGGFALDKKWNDTFRADNDKRSTEIIWSIVYDEVYAKGMGWYQRWLHYAHQTGWDLQSGPWNGLVTQPTFYDSFADNDLRKIEGFLIGKQYPRKVDENGNYYYDTTAEPLKGSEEYNGQDLVFVNYIKSMTEGEENSGARSIKYEIQPGTTGDMNNDWVMFRYSEVIYNKAEALMRKNGGKATQEVVDMINSVRQRSFKAEDWEKAKYTTATLTMDEFLAEKGREFAFEGIRRTDLVRFNKFVTTSWWDKTASNEPKRNIFPIPQRQLDANANLSPNEANSLF
With B1 the “glycan array binding signal (z-score)” value [1] was -0.389, the “glycan array binding signal (z-score)” value [2] was 0.935 and the “glycan array binding signal (z-score)” value [3] was -0.006. The “glycan array binding signal (z-score)” value [4] was -0.439, the “glycan array binding signal (z-score)” value [5] was -0.393 and the “glycan array binding signal (z-score)” value [6] was -0.568. The “glycan array binding signal (z-score)” value (Gal(a1-3)GalNAc) was -0.345, the “glycan array binding signal (z-score)” value [7] was 7.26 and the “glycan array binding signal (z-score)” value [8] was 0.46. For the same binder, the “glycan array binding signal (z-score)” value (Gal(a1-4)Gal(b1-4)Glc) was 0.003, the “glycan array binding signal (z-score)” value (Gal(a1-4)Gal(b1-4)GlcNAc) was -0.18 and the “glycan array binding signal (z-score)” value [9] was 0.807. For the same binder, the “glycan array binding signal (z-score)” value [10] was -0.094, the “glycan array binding signal (z-score)” value (Gal(a1-4)GlcNAc) was -0.121 and the “glycan array binding signal (z-score)” value (Gal(a1-6)Glc) was -0.045. For the same binder, the “glycan array binding signal (z-score)” value (Gal(b1-2)Gal) was -0.807, the “glycan array binding signal (z-score)” value (Gal(b1-3)Gal) was 0.564 and the “glycan array binding signal (z-score)” value (Gal(b1-3)Gal(b1-4)GlcNAc) was 0.853. The “glycan array binding signal (z-score)” value (Gal(b1-3)GalNAc) was -0.208, the “glycan array binding signal (z-score)” value [11] was 0.221 and the “glycan array binding signal (z-score)” value [12] was -0.348. For the same binder, the “glycan array binding signal (z-score)” value (Gal(b1-3)GalNAc(b1-3)Gal) was -0.193, the “glycan array binding signal (z-score)” value [13] was -0.549 and the “glycan array binding signal (z-score)” value [14] was -0.662. The “glycan array binding signal (z-score)” value [15] was -0.181, the “glycan array binding signal (z-score)” value (Gal(b1-3)GlcNAc) was -0.517 and the “glycan array binding signal (z-score)” value [16] was -0.425. For the same binder, the “glycan array binding signal (z-score)” value [17] was 0.342, the “glycan array binding signal (z-score)” value (Gal(b1-3)GlcNAc(b1-2)Man) was 0.516 and the “glycan array binding signal (z-score)” value [18] was 4.29. For the same binder, the “glycan array binding signal (z-score)” value [19] was 0.18, the “glycan array binding signal (z-score)” value [20] was -0.202 and the “glycan array binding signal (z-score)” value [21] was 0.936. The “glycan array binding signal (z-score)” value [22] was -0.107, the “glycan array binding signal (z-score)” value [23] was -0.83 and the “glycan array binding signal (z-score)” value [24] was -0.403. For the same binder, the “glycan array binding signal (z-score)” value [25] was -0.341, the “glycan array binding signal (z-score)” value [26] was 3.82 and the “glycan array binding signal (z-score)” value [27] was 7.05. The “glycan array binding signal (z-score)” value [28] was -0.321, the “glycan array binding signal (z-score)” value [29] was -0.243 and the “glycan array binding signal (z-score)” value [30] was -1.05. For the same binder, the “glycan array binding signal (z-score)” value [31] was 0.46, the “glycan array binding signal (z-score)” value [32] was -0.683 and the “glycan array binding signal (z-score)” value [33] was 1.52.
